# Measured values reported in paper PMC4336329 (PLoS ONE, 2015).
# Among all 310,000 compounds or so, about 14,000 (4.5%) showed an effect of 50% or more. Effects have a minus sign here. The list shows a part of the results.
# Biological target: human ether-à-go-go-related gene (hERG) potassium channel (human, UniProt Q12809)
# Assay: primary screen, population patch clamp on CHO cells stably expressing hERG
# 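Note: peak tail current of the secondary pulse compared with the same well before compound.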
# human ether-à-go-go-related gene (hERG) potassium channel, sequence (Q12809 whole entry, looked up): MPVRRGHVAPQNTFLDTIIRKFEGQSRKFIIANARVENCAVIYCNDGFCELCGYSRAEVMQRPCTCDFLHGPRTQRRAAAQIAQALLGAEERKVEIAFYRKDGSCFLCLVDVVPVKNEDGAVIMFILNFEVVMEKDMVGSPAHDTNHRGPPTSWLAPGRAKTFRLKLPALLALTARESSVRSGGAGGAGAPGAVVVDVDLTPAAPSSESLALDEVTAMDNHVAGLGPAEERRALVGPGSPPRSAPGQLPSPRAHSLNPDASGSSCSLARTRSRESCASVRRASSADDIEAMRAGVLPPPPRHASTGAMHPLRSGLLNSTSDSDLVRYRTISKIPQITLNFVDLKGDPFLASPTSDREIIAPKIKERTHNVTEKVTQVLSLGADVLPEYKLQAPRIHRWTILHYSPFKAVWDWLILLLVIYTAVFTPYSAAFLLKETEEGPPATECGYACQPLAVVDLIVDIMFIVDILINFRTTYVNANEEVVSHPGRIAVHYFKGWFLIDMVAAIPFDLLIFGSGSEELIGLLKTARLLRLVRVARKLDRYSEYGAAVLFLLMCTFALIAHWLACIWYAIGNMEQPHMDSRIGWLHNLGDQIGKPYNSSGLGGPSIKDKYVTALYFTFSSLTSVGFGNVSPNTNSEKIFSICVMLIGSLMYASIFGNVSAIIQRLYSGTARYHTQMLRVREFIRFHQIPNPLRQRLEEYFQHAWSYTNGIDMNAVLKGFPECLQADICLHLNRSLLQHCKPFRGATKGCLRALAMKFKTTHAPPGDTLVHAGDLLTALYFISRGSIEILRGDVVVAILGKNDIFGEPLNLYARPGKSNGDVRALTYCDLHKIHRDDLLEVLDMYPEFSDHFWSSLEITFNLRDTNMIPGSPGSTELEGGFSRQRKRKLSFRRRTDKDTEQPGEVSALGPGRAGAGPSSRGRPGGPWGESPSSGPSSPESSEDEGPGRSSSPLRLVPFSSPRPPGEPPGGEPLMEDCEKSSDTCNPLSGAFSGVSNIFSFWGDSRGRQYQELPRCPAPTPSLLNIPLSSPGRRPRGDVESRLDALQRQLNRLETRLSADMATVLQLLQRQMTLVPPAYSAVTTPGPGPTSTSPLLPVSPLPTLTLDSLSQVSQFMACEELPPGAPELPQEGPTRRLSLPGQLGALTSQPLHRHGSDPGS
row,Structure (SMILES),"hERG current change (%, negative = inhibition) at 10uM [%]"
1,CC(C)(C)C(=O)Nc1nnc(CSCc2ccccc2F)s1,-6.48
2,O=C(CN1c2ccccc2Sc2ccccc21)NNC(=O)Nc1cccc(Cl)c1,2.84
3,COc1ccc(/C=N\NC(=O)c2cccc(F)c2)cc1COc1ccccc1,19.5
4,O=C1CCC(=O)N1Cc1c(Cl)cccc1Cl,19.8
5,O=C(O)C1CCN(C(=O)CSc2nc3ccccc3c(=O)n2-c2ccc(Cl)cc2)CC1,25.4
6,Cn1c(CN2CCC(C(N)=O)CC2)c(C#N)c2ccccc21,-0.933
7,CC(=O)c1cc(C#N)c(SCc2ccccc2C#N)nc1C,9.53
8,COc1cc(OC)cc(C(=O)N[C@H](C(=O)Nc2cc(C)cc(C)c2)C(C)C)c1,-54.7
9,CCOc1ccc(Cc2nnc(SCC(=O)Nc3c(C)cccc3C)[nH]c2=O)cc1,3.96
10,Cn1cc(CN2CCCC(CO)(Cc3cccc(Cl)c3)C2)cn1 (stereo not drawn),-17.1
11,Cc1ccc(-c2cc(C(=O)Nc3cnn(C(C)C)c3)no2)cc1,8.89
12,CSC1=NCCN1S(=O)(=O)c1ccc(Cl)cc1,-9.47
13,Cc1ccc(C(=O)N/N=C\c2ccc(OC(=O)c3cccc(F)c3)cc2)cn1,11
14,O=C(NCCN1CCNCC1)c1ccccc1O,6.74
15,Cc1cc2nc3n(c2cc1C)CC1CC(C(=O)NCc2ccccc2)N(C)C31 (stereo not drawn),-31.4
16,CCOc1ccc2nc(N(CCN(C)C)C(=O)c3ccc4ccccc4c3)sc2c1.Cl,4.67
17,S=C(NCc1ccco1)Nc1ccc(Br)cn1,6.67
18,O=C(NCc1ccccc1)C1c2ccccc2Oc2ccccc21,7.83
19,Cc1ccc(CN2CC(C(=O)Nc3cc(C)ccn3)CC2=O)cc1 (stereo not drawn),0.197
20,CCCn1c(N)c(N(CCOC)C(=O)c2cccc(S(=O)(=O)N3CCCc4ccccc43)c2)c(=O)[nH]c1=O,3.29
21,CCOC(=O)N1CCC(NC(=O)c2cc(C(=O)Nc3ccc(OC)c(OC)c3)ccc2CO)CC1,6.11
22,C=CCC1(CC=C)CCCN1C(=O)CC1C(=O)NCCN1Cc1ccc(OC)c(OC)c1 (stereo not drawn),-2.96
23,CC1CCN(S(=O)(=O)c2ccc3c(c2)c(=O)c(C(=O)NCc2ccccc2Cl)cn3C)CC1,13.9
24,CC1CC(C)CN(c2ncc3c(n2)CC(c2ccccc2Cl)CC3=O)C1 (stereo not drawn),21.9
